# Measurements reported in PubChem BioAssay AID1963576 (National Center for Advancing Translational Sciences (NCATS), 2024).
# Hit rate of the full screen: of about 46,000 compounds, about 60 (0.1%) were called active. Roughly 3% stayed inconclusive and do not appear here. The call rests on the fitted dose curve; in most records, active means well fitted inhibition curve with a large enough effect; inconclusive means small, poorly fitted or top-dose-only effect; inactive means no such curve, though single readings can be large or run the other way. The list shows a part of the results.
# Assay: Primary qHTS assay for Inhibitors of ovarian cancer metastasis using an organotypic tumor microenvironment (TME) model. Further: nearly all actives have a fitted effect of over 65% in size.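 On activity change, negative = inhibition: plate controls were DMSO wells for no effect and tomatine positive control wells for full effect.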
# Conditions: SKOV3ip1-GFP adhesion/invasion on 3D omental model, fluorescence; series mostly up to 45.8 µM; activity change, negative = inhibition: at the top concentration
# Summary of the method: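 A 3D layer of primary human omental fibroblasts, mesothelial cells, fibronectin and collagen I, grown 48 hr, received SKOV3ip1-GFP cells in serum-free medium plus compounds at 0.36-46 umol/L. After 2 hr RT and 16 hr 37 C, fixed adherent GFP cells were counted; normalized to DMSO and tomatine.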
Compound,"activity change, negative = inhibition",outcome
Fc1cccc(Cl)c1CNc1n[nH]c(-c2ccco2)n1,inactive: -2.54%,–
COc1ccc2c(c1)c1c(c(=O)n(-c3ccccc3)c(=O)n1CC(=O)Nc1ccc(F)cc1)n2C,inactive: 9.65%,–
COc1ccc(N2CC(NC(=O)c3ccc4c(c3)OCO4)CC2=O)cc1OC (centres undefined),–,inactive
CCc1ccc(-n2c(SCC(=O)NC(C)CC)nc3n[nH]c(C)c3c2=N)cc1 (centres undefined),–,inactive
COc1ccc(NC(=O)Cc2csc(COc3cccc(C)c3)n2)cc1OC,inactive: -4.69%,–
Cc1ccc(C)c(S(=O)(=O)c2nnn3c2nc(NCc2cccs2)c2sccc23)c1,inactive: -1.11%,–
Cc1ccc2nc(Cl)c3cc(C(=O)NCCCN4CCC(C)CC4)sc3c2c1,inactive: 51.4%,–
Cc1c(-c2ccccc2)c(=O)oc2c(CN3CCN(C)CC3)c(O)ccc12,inactive: -18.4%,–
Cc1cc(NC(=O)c2ccc(-c3ccc(Br)cc3)o2)cc(-c2nc3ncccc3o2)c1O,–,inactive
COc1ccc(Cl)cc1C(=O)Nc1ccc2oc(-c3ccc(C(C)(C)C)cc3)nc2c1,inactive: 0.637%,–
CCc1cc2c(cc3c(=O)n(CC(=O)N4CCCCC4)nc(CC)n32)s1,inactive: 3.27%,–
CCCn1ccc2c(OCC(=O)NCc3ccc(F)cc3)cccc2c1=O,–,inactive
CCCCN(C)CC(O)Cn1cc(/C=C/C(=O)c2ccc(OC)c(OC)c2)c2ccccc21 (centres undefined),inactive: -22.2%,–
COc1ccc(CNC(=O)Cn2nnc(-c3ccccc3F)n2)cc1,–,inactive
Cc1ccc(-c2nc(S(=O)(=O)c3ccc(Cl)cc3)c(N3CCCCC3)o2)cc1,inactive: -7.42%,–
Cc1cc2n(n1)CCCN2C(=O)Nc1ccc(Cl)cc1,inactive: -13.3%,–
NC12CC3CC(CC(C3)C1)C2,inactive: 4.04%,–
CC(C)c1nnc(NC(=O)c2nc(SCc3ccc(F)cc3)ncc2Cl)s1,inactive: 6.9%,–
CCCSC1=NC2(CCN(C(=O)NC3CCCCC3)CC2)N=C1c1ccccc1,inactive: 0.693%,–
CSc1ncc(Cl)c(C(=O)Nc2nc3ccc(F)cc3s2)n1,inactive: 11.6%,–
COc1cccc(NC(=O)CN(Cc2ccccc2)S(=O)(=O)c2ccc3nc(C)sc3c2)c1,inactive: -11.7%,–
CCCCc1nn2c(=O)cc(COC(=O)c3cccc(NC(=O)c4cccc(C)c4)c3)nc2s1,inactive: -9.47%,–
CCOC(=O)c1c(S(=O)(=O)NCC(=O)Nc2ccc(Cl)c(C(F)(F)F)c2)c(C)n(C)c1C,inactive: -0.594%,–
COc1ccc(OC)c(-c2nc(C(N)=O)c3c(n2)n(-c2ccc4c(c2)OCO4)c(=O)n3C)c1,inactive: 3.35%,–
Cc1nn(CCCC(=O)NCc2cccc(F)c2)c(=O)c2nn(-c3ccccc3)c(C)c12,inactive: 6.05%,–

Compound,"activity change, negative = inhibition",outcome
CCOc1ccc(CNCc2c(C(=O)O)c(C)n(Cc3ccc(F)cc3Cl)c2C)cc1,inactive: 16.5%,–
CCN1CCN(C(=O)c2ccc3c(c2)N(Cc2ccccc2)C(=O)c2ccccc2S3=O)CC1 (centres undefined),–,inactive
CCCCN(CC)C(=O)CCn1c(=O)c2cccn2c2cccnc21,inactive: 26.4%,–
COc1ccccc1C(=O)c1c(N)c(-c2nc(-c3ccccc3)cs2)c2ccccn12,inactive: -6.22%,–
CCCN1CCN(c2ncc3c(n2)CCN(Cc2ccc(OC)c(OC)c2OC)C3)CC1,inactive: 7.71%,–
Cc1ccc(NC(=O)Cn2nc(-c3ccc(F)cc3)c3cnc4ccc(C)cc4c32)cc1,inactive: 3.62%,–
COc1ccccc1-c1noc(-c2ccc(N(C)Cc3ccccc3)c([N+](=O)[O-])c2)n1,inactive: 4.92%,–
Cc1ccc(CN2CCCn3nc(C(=O)NCc4ccccc4Cl)cc3C2=O)cc1,inactive: 12.1%,–
Cc1ccc(NC(=O)CN(C)S(=O)(=O)c2ccc3c(c2)CCC(=O)N3)c(C)c1,inactive: 1.35%,–
CCCCNC(=O)CN1C(=O)CSc2ccc(S(=O)(=O)N3CCC(C)CC3)cc21,inactive: 5.13%,–
COc1cccc(CNc2ncc(-c3ccc(Br)cc3)n2C)c1,inactive: -11%,–
CC(C)N(C(=O)c1cc2c(Cl)nc3ccccc3c2s1)C1CCCCC1,inactive: -9.49%,–
COc1cccc2sc(N3CCN(C(=O)CS(=O)(=O)c4ccc(Cl)cc4)CC3)nc12,–,inactive
COc1ccc(-n2c(SCC(=O)Nc3nnc(C)s3)nc3c([nH]c4ccccc43)c2=O)cc1,–,inactive
CCOC(=O)c1scc(-c2ccc(C)cc2)c1S(=O)(=O)Nc1cccc(CC)c1,–,inactive
Cc1onc(-c2ccc(Br)cc2)c1C(=O)Nc1ccc(Br)cc1F,inactive: 0.444%,–
Cc1cc(C)c(S(=O)(=O)N2CCN(Cc3nc4ccc(C)cc4o3)CC2)c(C)c1,inactive: -21.4%,–
CC1=C(C(=O)Nc2cc(C)ccc2C)C2(CCCCCC2)OC1=O,–,inactive
CCN1C(C(=O)c2ccccc2)=C(OC(=O)COc2ccccc2)c2ccccc2S1(=O)=O,–,inactive
O=C(NCCCN1CCN(c2ccccc2)CC1)c1nnc(Cc2ccc(F)cc2)o1,inactive: -8.49%,–
CCOc1ccc(NC(=O)Cn2cc(C(=O)c3ccc(C)cc3)c(=O)c3cc4c(cc32)OCCO4)cc1,–,inactive
O=C(O)CC(NS(=O)(=O)c1ccc(Br)s1)c1ccccc1 (centres undefined),inactive: 3.57%,–
CCOC(=O)c1ccccc1Nc1cc(C)nc2nc(-c3ccco3)nn12,inactive: -9.59%,–
Cc1cccc(C(=O)Nc2cc3c(cc2N2CCOCC2)n(C)c(=O)n3C)c1,inactive: -9.65%,–
